Measurements from the supplement of paper PMC10037445.
Whole data set: some 2,900 compounds, median “NF-kB SEAP reporter activity, fold change vs agonist alone” near 0.99, cut for the highest 2% near 2.6. The list shows a part of the results.

Legend:
RAW-Dual [1] = test: NF-kB SEAP reporter activity, fold change vs agonist alone; cytotoxicity flag (confluency mask): not cytotoxic; higher = enhanced NF-kB activity
Method in brief: (§1)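 After 50 nL of library stock was delivered by pin tool to RAW-Dual macrophages (50,000 cells/well, DMEM, 384-well plates), a PRR agonist was added 1 h later and the plates were kept at 37 °C, 5% CO2. Twenty hours later, IRF was read from supernatant by QuantiLuc luminescence and NF-κB by QuantiBlue absorbance at 620 nm. Reporter activity is stated as fold change over agonist-alone wells. Wells with IncuCyte confluency under 70% of agonist controls in both mask sets were counted as cytotoxic.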

RAW-Dual [2] = test: NF-kB SEAP reporter activity, fold change vs agonist alone; higher = enhanced NF-kB activity; details: library stock concentration (final ~1000-fold dilution): 10 mM
Method in brief: as §1

RAW-Dual [3] = test: NF-kB SEAP reporter activity, fold change vs agonist alone; cytotoxicity flag (confluency mask): cytotoxic (confluency <70% of control); higher = enhanced NF-kB activity
Method in brief: as §1

[4] = agonist: ODN 1826 (TLR9) 0.5 ug/mL
[5] = agonist: Pam2CSK4 (TLR2/6) 0.1 ug/mL
[6] = agonist: Pam3CSK4 (TLR2/1) 0.1 ug/mL
[7] = cytotoxicity flag (confluency mask): not cytotoxic, agonist: Imiquimod (TLR7) […]
[8] = cytotoxicity flag (confluency mask): not cytotoxic, agonist: MPLA (TLR4) […]

CC(C)c1ccc2c(c1O)CCC1C3=C(CCC21C)C(=O)OC3 (stereo not given) (library stock concentration (final ~1000-fold dilution): 10 mM)
NF-kB SEAP reporter activity (RAW-Dual [1]; agonist: LPS (TLR4) 0.1 ug/mL): 1.02
NF-kB SEAP reporter activity (RAW-Dual [1]; [4]): 0.678
NF-kB SEAP reporter activity (RAW-Dual [1]; [5]): 0.929
NF-kB SEAP reporter activity (RAW-Dual [1]; [6]): 0.968

CC(C)c1ccc2c(c1O)CCC1C3=C(CCC21C)C(=O)OC3 (stereo not given)
NF-kB SEAP reporter activity (RAW-Dual [2]; [7]): 0.849
NF-kB SEAP reporter activity (RAW-Dual [2]; [8]): 1.2

COc1ccc2c(c1O)-c1c(OC)c(OC)cc3c1C(C2)N(C)CC3 (stereo not given)
NF-kB SEAP reporter activity (RAW-Dual [2]; [7]): 0.969
NF-kB SEAP reporter activity (RAW-Dual [2]; [8]): 1.03

COc1ccc2c(c1O)-c1c(OC)c(OC)cc3c1C(C2)N(C)CC3 (stereo not given) (library stock concentration (final ~1000-fold dilution): 10 mM)
NF-kB SEAP reporter activity (RAW-Dual [1]; agonist: LPS (TLR4) 0.1 ug/mL): 1.21
NF-kB SEAP reporter activity (RAW-Dual [1]; [4]): 0.945
NF-kB SEAP reporter activity (RAW-Dual [1]; [5]): 1.11
NF-kB SEAP reporter activity (RAW-Dual [1]; [6]): 1.05

CCNC1(c2cccs2)CCCCC1=O.Cl (stereo not given) (library stock concentration (final ~1000-fold dilution): 10 mM)
NF-kB SEAP reporter activity (RAW-Dual [1]; agonist: LPS (TLR4) 0.1 ug/mL): 0.97
NF-kB SEAP reporter activity (RAW-Dual [1]; [4]): 0.957
NF-kB SEAP reporter activity (RAW-Dual [1]; [5]): 1
NF-kB SEAP reporter activity (RAW-Dual [1]; [6]): 0.754

CCNC1(c2cccs2)CCCCC1=O.Cl (stereo not given)
NF-kB SEAP reporter activity (RAW-Dual [2]; [8]): 1.03

COc1ccc(C=O)cc1O (library stock concentration (final ~1000-fold dilution): 10 mM)
NF-kB SEAP reporter activity (RAW-Dual [1]; agonist: LPS (TLR4) 0.1 ug/mL): 1.43
NF-kB SEAP reporter activity (RAW-Dual [1]; [4]): 0.878
NF-kB SEAP reporter activity (RAW-Dual [1]; [5]): 1.24
NF-kB SEAP reporter activity (RAW-Dual [1]; [6]): 0.929

COc1ccc(C=O)cc1O
NF-kB SEAP reporter activity (RAW-Dual [2]; [8]): 1.02

COc1ccc2c(c1)/C(=C/c1cnc[nH]1)C(=O)N2
NF-kB SEAP reporter activity (RAW-Dual [2]; [7]): 1.37
NF-kB SEAP reporter activity (RAW-Dual [2]; [8]): 1.86

COc1ccc2c(c1)/C(=C/c1cnc[nH]1)C(=O)N2 (library stock concentration (final ~1000-fold dilution): 10 mM)
NF-kB SEAP reporter activity (RAW-Dual [1]; agonist: LPS (TLR4) 0.1 ug/mL): 1.06
NF-kB SEAP reporter activity (RAW-Dual [1]; [4]): 1.65
NF-kB SEAP reporter activity (RAW-Dual [1]; [5]): 0.608
NF-kB SEAP reporter activity (RAW-Dual [1]; [6]): 0.725

CC(=O)OC1CC2CCC3C(CCC4(C)C3CC([N+]3(C)CCCCC3)C4OC(C)=O)C2(C)CC1[N+]1(C)CCCCC1 (stereo not given) (library stock concentration (final ~1000-fold dilution): 10 mM)
NF-kB SEAP reporter activity (RAW-Dual [1]; agonist: LPS (TLR4) 0.1 ug/mL): 1.19
NF-kB SEAP reporter activity (RAW-Dual [1]; [4]): 1.04
NF-kB SEAP reporter activity (RAW-Dual [1]; [5]): 0.973
NF-kB SEAP reporter activity (RAW-Dual [1]; [6]): 1.04

CC(=O)OC1CC2CCC3C(CCC4(C)C3CC([N+]3(C)CCCCC3)C4OC(C)=O)C2(C)CC1[N+]1(C)CCCCC1 (stereo not given)
NF-kB SEAP reporter activity (RAW-Dual [2]; [7]): 0.933
NF-kB SEAP reporter activity (RAW-Dual [2]; [8]): 0.963

COc1ccc2c(c1)[nH]c1c(C)nccc12
NF-kB SEAP reporter activity (RAW-Dual [2]; [7]): 0.982
NF-kB SEAP reporter activity (RAW-Dual [2]; [8]): 1.06

COc1ccc2c(c1)[nH]c1c(C)nccc12 (library stock concentration (final ~1000-fold dilution): 10 mM)
NF-kB SEAP reporter activity (RAW-Dual [1]; agonist: LPS (TLR4) 0.1 ug/mL): 0.78
NF-kB SEAP reporter activity (RAW-Dual [1]; [4]): 0.197
NF-kB SEAP reporter activity (RAW-Dual [1]; [5]): 0.843
NF-kB SEAP reporter activity (RAW-Dual [1]; [6]): 0.739

CN(C)NC(=O)CCC(=O)O
NF-kB SEAP reporter activity (RAW-Dual [2]; [8]): 0.991

CN(C)NC(=O)CCC(=O)O (library stock concentration (final ~1000-fold dilution): 10 mM)
NF-kB SEAP reporter activity (RAW-Dual [1]; agonist: LPS (TLR4) 0.1 ug/mL): 1.2
NF-kB SEAP reporter activity (RAW-Dual [1]; [4]): 0.955
NF-kB SEAP reporter activity (RAW-Dual [1]; [5]): 0.776
NF-kB SEAP reporter activity (RAW-Dual [1]; [6]): 0.801

COC12CC(COC(=O)c3cncc(Br)c3)CN(C)C1Cc1cn(C)c3cccc2c13 (stereo not given)
NF-kB SEAP reporter activity (RAW-Dual [2]; [8]): 1.14

COC12CC(COC(=O)c3cncc(Br)c3)CN(C)C1Cc1cn(C)c3cccc2c13 (stereo not given) (library stock concentration (final ~1000-fold dilution): 10 mM)
NF-kB SEAP reporter activity (RAW-Dual [1]; agonist: LPS (TLR4) 0.1 ug/mL): 1.06
NF-kB SEAP reporter activity (RAW-Dual [1]; [4]): 0.759
NF-kB SEAP reporter activity (RAW-Dual [1]; [5]): 0.858
NF-kB SEAP reporter activity (RAW-Dual [1]; [6]): 0.824

CCC1=CC2CN3CCc4c([nH]c5ccccc45)C(C(=O)OC)(C2)C13.O=C(O)C(O)C(O)C(=O)O (stereo not given)
NF-kB SEAP reporter activity (RAW-Dual [2]; [7]): 0.871
NF-kB SEAP reporter activity (RAW-Dual [2]; [8]): 1.12

CCC1=CC2CN3CCc4c([nH]c5ccccc45)C(C(=O)OC)(C2)C13.O=C(O)C(O)C(O)C(=O)O (stereo not given) (library stock concentration (final ~1000-fold dilution): 10 mM)
NF-kB SEAP reporter activity (RAW-Dual [1]; agonist: LPS (TLR4) 0.1 ug/mL): 0.978
NF-kB SEAP reporter activity (RAW-Dual [1]; [4]): 0.805
NF-kB SEAP reporter activity (RAW-Dual [1]; [5]): 0.917
NF-kB SEAP reporter activity (RAW-Dual [1]; [6]): 1.05

CC(C)N(CCC(C(N)=O)(c1ccccc1)c1ccccn1)C(C)C (stereo not given)
NF-kB SEAP reporter activity (RAW-Dual [2]; [8]): 1.05

CC(C)N(CCC(C(N)=O)(c1ccccc1)c1ccccn1)C(C)C (stereo not given) (library stock concentration (final ~1000-fold dilution): 10 mM)
NF-kB SEAP reporter activity (RAW-Dual [1]; agonist: LPS (TLR4) 0.1 ug/mL): 0.964
NF-kB SEAP reporter activity (RAW-Dual [1]; [4]): 0.921
NF-kB SEAP reporter activity (RAW-Dual [1]; [5]): 1.11
NF-kB SEAP reporter activity (RAW-Dual [1]; [6]): 0.893

O=[N+]([O-])/C=C/c1ccc2c(c1)OCO2 (library stock concentration (final ~1000-fold dilution): 10 mM)
NF-kB SEAP reporter activity (RAW-Dual [3]; agonist: LPS (TLR4) 0.1 ug/mL): 0.403
NF-kB SEAP reporter activity (RAW-Dual [3]; [4]): 0.3
NF-kB SEAP reporter activity (RAW-Dual [3]; [5]): 0.11
NF-kB SEAP reporter activity (RAW-Dual [3]; [6]): 0.216

O=[N+]([O-])/C=C/c1ccc2c(c1)OCO2
NF-kB SEAP reporter activity (RAW-Dual [2]; cytotoxicity flag (confluency mask): cytotoxic (confluency <70% of control), agonist: MPLA (TLR4) […]): 0.26

COc1ccc(CN2CCNCC2)c(OC)c1OC.Cl.Cl (library stock concentration (final ~1000-fold dilution): 10 mM)
NF-kB SEAP reporter activity (RAW-Dual [1]; agonist: LPS (TLR4) 0.1 ug/mL): 1.14
NF-kB SEAP reporter activity (RAW-Dual [1]; [4]): 0.998
NF-kB SEAP reporter activity (RAW-Dual [1]; [5]): 0.997
NF-kB SEAP reporter activity (RAW-Dual [1]; [6]): 0.98

COc1ccc(CN2CCNCC2)c(OC)c1OC.Cl.Cl
NF-kB SEAP reporter activity (RAW-Dual [2]; [7]): 0.88
NF-kB SEAP reporter activity (RAW-Dual [2]; [8]): 0.968

C=C1CC2C(CCC3(C)C(=O)CCC23)C2(C)C=CC(=O)C=C12 (stereo not given) (library stock concentration (final ~1000-fold dilution): 10 mM)
NF-kB SEAP reporter activity (RAW-Dual [1]; agonist: LPS (TLR4) 0.1 ug/mL): 0.812
NF-kB SEAP reporter activity (RAW-Dual [1]; [4]): 1.56
NF-kB SEAP reporter activity (RAW-Dual [1]; [5]): 0.681
NF-kB SEAP reporter activity (RAW-Dual [1]; [6]): 0.969

C=C1CC2C(CCC3(C)C(=O)CCC23)C2(C)C=CC(=O)C=C12 (stereo not given)
NF-kB SEAP reporter activity (RAW-Dual [2]; [7]): 1.64
NF-kB SEAP reporter activity (RAW-Dual [2]; [8]): 1.62

CCCCCCC[n+]1ccc(-c2cc[n+](CCCCCCC)cc2)cc1
NF-kB SEAP reporter activity (RAW-Dual [2]; [7]): 1.32
NF-kB SEAP reporter activity (RAW-Dual [2]; [8]): 2.11
